# Results taken from the supplement of paper PMC8728848.
# The other results are listed elsewhere or left out.
# B1: CVN-E41G (protein)
# chain: MHHHHHHENLYFQSGNFSQACYNSAIQGSVLTSTCIRTNGGYNTSSIDLNSVIANVDGSLKWQGSNFIETCRNTQLAGSSELAAECKTRAQQFVSTKINLDDHIAAIDGTLKYE
# Assays:
# Assay in all cases: glycan array binding signal (z-score within array); higher = stronger binding
# Conditions in all cases: glycan notation: IUPAC condensed, linker removed; mutation: E41A
# [1] = target: Gal(b1-3)GlcNAc(b1-6)GalNAc
# Summary of the method: (§1)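 Negative Z-scores can be read as non-binding. The Z-score is calculated within each array and then averaged across arrays of one protein sequence at different concentrations or buffers and across linkers. Arrays, 3228 in all, were curated from the Consortium for Functional Glycomics database and kept only where the protein sequence was available.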
# [2] = target: Gal(b1-3)GlcNAc(b1-6)[Gal(b1-3)]GalNAc
# Summary of the method: as §1
# Gal(b1-3)GlcNAc6S = target: Gal(b1-3)GlcNAc6S
# Summary of the method: as §1
# [3] = target: Gal(b1-3)[Fuc(a1-4)]GlcNAc
# Summary of the method: as §1
# [4] = target: Gal(b1-3)[Fuc(a1-4)]GlcNAc(b1-2)Man
# Summary of the method: as §1
# [5] = target: Gal(b1-3)[Fuc(a1-4)]GlcNAc(b1-2)Man(a1-3)[Gal(b1-3)[Fuc(a1-4)]GlcNAc(b1-2)Man(a1-6)]Man(b1-4)GlcNAc(b1-4)[Fuc(a1-6)]GlcNAc
# Summary of the method: as §1
# [6] = target: Gal(b1-3)[Fuc(a1-4)]GlcNAc(b1-3)Gal(b1-3)[Fuc(a1-4)]GlcNAc
# Summary of the method: as §1
# [7] = target: Gal(b1-3)[Fuc(a1-4)]GlcNAc(b1-3)Gal(b1-4)[Fuc(a1-3)]GlcNAc
# Summary of the method: as §1
# [8] = target: Gal(b1-3)[Fuc(a1-4)]GlcNAc(b1-6)GalNAc
# Summary of the method: as §1
# [9] = target: Gal(b1-3)[GlcNAc(b1-6)]GalNAc
# Summary of the method: as §1
# [10] = target: Gal(b1-3)[Neu5Ac(a2-6)]GalNAc
# Summary of the method: as §1
# [11] = target: Gal(b1-3)[Neu5Ac(a2-6)]GlcNAc(b1-4)Gal(b1-4)Glc
# Summary of the method: as §1
# [12] = target: Gal(b1-3)[Neu5Ac(b2-6)]GalNAc
# Summary of the method: as §1
# Gal(b1-4)Gal = target: Gal(b1-4)Gal
# Summary of the method: as §1
# [13] = target: Gal(b1-4)GalNAc(a1-3)[Fuc(a1-2)]Gal(b1-4)GlcNAc
# Summary of the method: as §1
# [14] = target: Gal(b1-4)GalNAc(b1-3)[Fuc(a1-2)]Gal(b1-4)GlcNAc
# Summary of the method: as §1
# Gal(b1-4)Glc = target: Gal(b1-4)Glc
# Summary of the method: as §1
# Gal(b1-4)Glc6S = target: Gal(b1-4)Glc6S
# Summary of the method: as §1
# Gal(b1-4)GlcNAc = target: Gal(b1-4)GlcNAc
# Summary of the method: as §1
# [15] = target: Gal(b1-4)GlcNAc(a1-6)Gal(b1-4)GlcNAc
# Summary of the method: as §1
# Gal(b1-4)GlcNAc(b1-2)Man = target: Gal(b1-4)GlcNAc(b1-2)Man
# Summary of the method: as §1
# [16] = target: Gal(b1-4)GlcNAc(b1-2)Man(a1-3)Man(b1-4)GlcNAc(b1-4)GlcNAc
# Summary of the method: as §1
# [17] = target: Gal(b1-4)GlcNAc(b1-2)Man(a1-3)[Gal(b1-4)GlcNAc(b1-2)Man(a1-6)]Man(b1-4)GlcNAc(b1-4)GlcNAc
# Summary of the method: as §1
# [18] = target: Gal(b1-4)GlcNAc(b1-2)Man(a1-3)[Gal(b1-4)GlcNAc(b1-2)Man(a1-6)]Man(b1-4)GlcNAc(b1-4)[Fuc(a1-6)]GlcNAc
# Summary of the method: as §1
# [19] = target: Gal(b1-4)GlcNAc(b1-2)Man(a1-3)[Gal(b1-4)GlcNAc(b1-2)Man(a1-6)][Gal(b1-4)GlcNAc(b1-4)]Man(b1-4)GlcNAc(b1-4)[Fuc(a1-6)]GlcNAc
# Summary of the method: as §1
# [20] = target: Gal(b1-4)GlcNAc(b1-2)Man(a1-3)[Gal(b1-4)GlcNAc(b1-2)Man(a1-6)][GlcNAc(b1-4)]Man(b1-4)GlcNAc(b1-4)[Fuc(a1-6)]GlcNAc
# Summary of the method: as §1
# [21] = target: Gal(b1-4)GlcNAc(b1-2)Man(a1-3)[GlcNAc(b1-2)Man(a1-6)]Man(b1-4)GlcNAc(b1-4)GlcNAc
# Summary of the method: as §1
# [22] = target: Gal(b1-4)GlcNAc(b1-2)Man(a1-3)[GlcNAc(b1-4)][Gal(b1-4)GlcNAc(b1-2)Man(a1-6)]Man(b1-4)GlcNAc(b1-4)GlcNAc
# Summary of the method: as §1
# [23] = target: Gal(b1-4)GlcNAc(b1-2)Man(a1-3)[Man(a1-6)]Man(b1-4)GlcNAc(b1-4)GlcNAc
# Summary of the method: as §1
# [24] = target: Gal(b1-4)GlcNAc(b1-2)Man(a1-6)Man(b1-4)GlcNAc(b1-4)GlcNAc
# Summary of the method: as §1
# [25] = target: Gal(b1-4)GlcNAc(b1-2)Man(a1-6)[GlcNAc(b1-2)Man(a1-3)]Man(b1-4)GlcNAc(b1-4)GlcNAc
# Summary of the method: as §1
# [26] = target: Gal(b1-4)GlcNAc(b1-2)Man(a1-6)[Man(a1-3)]Man(b1-4)GlcNAc(b1-4)GlcNAc
# Summary of the method: as §1
# [27] = target: Gal(b1-4)GlcNAc(b1-2)[Gal(b1-4)GlcNAc(b1-4)]Man(a1-3)[Gal(b1-4)GlcNAc(b1-2)Man(a1-6)]Man(b1-4)GlcNAc(b1-4)GlcNAc
# Summary of the method: as §1
# [28] = target: Gal(b1-4)GlcNAc(b1-2)[Gal(b1-4)GlcNAc(b1-4)]Man(a1-3)[Gal(b1-4)GlcNAc(b1-2)[Gal(b1-4)GlcNAc(b1-6)]Man(a1-6)]Man(b1-4)GlcNAc(b1-4)GlcNAc
# Summary of the method: as §1
# [29] = target: Gal(b1-4)GlcNAc(b1-2)[Gal(b1-4)GlcNAc(b1-4)]Man(a1-3)[GlcNAc(b1-4)][Gal(b1-4)GlcNAc(b1-2)Man(a1-6)]Man(b1-4)GlcNAc(b1-4)GlcNAc
# Summary of the method: as §1
# [30] = target: Gal(b1-4)GlcNAc(b1-2)[Gal(b1-4)GlcNAc(b1-4)]Man(a1-3)[GlcNAc(b1-4)][Gal(b1-4)GlcNAc(b1-2)[Gal(b1-4)GlcNAc(b1-6)]Man(a1-6)]Man(b1-4)GlcNAc(b1-4)GlcNAc
# Summary of the method: as §1
# [31] = target: Gal(b1-4)GlcNAc(b1-2)[Gal(b1-4)GlcNAc(b1-6)]Man(a1-6)[Gal(b1-4)GlcNAc(b1-2)Man(a1-3)]Man(b1-4)GlcNAc(b1-4)GlcNAc
# Summary of the method: as §1
# [32] = target: Gal(b1-4)GlcNAc(b1-2)[Gal(b1-4)GlcNAc(b1-6)]Man(a1-6)[Gal(b1-4)GlcNAc(b1-2)Man(a1-3)]Man(b1-4)GlcNAc(b1-4)[Fuc(a1-6)]GlcNAc
# Summary of the method: as §1
# [33] = target: Gal(b1-4)GlcNAc(b1-2)[Gal(b1-4)GlcNAc(b1-6)]Man(a1-6)[GlcNAc(b1-4)][Gal(b1-4)GlcNAc(b1-2)Man(a1-3)]Man(b1-4)GlcNAc(b1-4)GlcNAc
# Summary of the method: as §1
# [34] = target: Gal(b1-4)GlcNAc(b1-2)[Gal(b1-4)GlcNAc(b1-6)]Man(a1-6)[GlcNAc(b1-4)][Gal(b1-4)GlcNAc(b1-2)[Gal(b1-4)GlcNAc(b1-4)]Man(a1-3)]Man(b1-4)GlcNAc(b1-4)[Fuc(a1-6)]GlcNAc
# Summary of the method: as §1
# [35] = target: Gal(b1-4)GlcNAc(b1-3)Gal(b1-3)GalNAc
# Summary of the method: as §1
# [36] = target: Gal(b1-4)GlcNAc(b1-3)Gal(b1-3)GlcNAc
# Summary of the method: as §1
# [37] = target: Gal(b1-4)GlcNAc(b1-3)Gal(b1-4)Glc
# Summary of the method: as §1
# [38] = target: Gal(b1-4)GlcNAc(b1-3)Gal(b1-4)GlcNAc
# Summary of the method: as §1
# [39] = target: Gal(b1-4)GlcNAc(b1-3)Gal(b1-4)GlcNAc(b1-2)Man(a1-3)[Gal(b1-4)GlcNAc(b1-3)Gal(b1-4)GlcNAc(b1-2)Man(a1-6)]Man(b1-4)GlcNAc(b1-4)GlcNAc
# Summary of the method: as §1
binder,measurement,setting,value
B1,glycan array binding signal (z-score),[1],-0.225
same,glycan array binding signal (z-score),[2],-0.091
same,glycan array binding signal (z-score),Gal(b1-3)GlcNAc6S,-0.196
same,glycan array binding signal (z-score),[3],-0.176
same,glycan array binding signal (z-score),[4],-0.138
same,glycan array binding signal (z-score),[5],0.49
same,glycan array binding signal (z-score),[6],-0.092
same,glycan array binding signal (z-score),[7],-0.204
same,glycan array binding signal (z-score),[8],-0.147
same,glycan array binding signal (z-score),[9],-0.167
same,glycan array binding signal (z-score),[10],-0.17
same,glycan array binding signal (z-score),[11],-0.189
same,glycan array binding signal (z-score),[12],-0.243
same,glycan array binding signal (z-score),Gal(b1-4)Gal,-0.215
same,glycan array binding signal (z-score),[13],-0.22
same,glycan array binding signal (z-score),[14],-0.244
same,glycan array binding signal (z-score),Gal(b1-4)Glc,-0.205
same,glycan array binding signal (z-score),Gal(b1-4)Glc6S,-0.203
same,glycan array binding signal (z-score),Gal(b1-4)GlcNAc,-0.222
same,glycan array binding signal (z-score),[15],-0.245
same,glycan array binding signal (z-score),Gal(b1-4)GlcNAc(b1-2)Man,0.734
same,glycan array binding signal (z-score),[16],-0.21
same,glycan array binding signal (z-score),[17],-0.227
same,glycan array binding signal (z-score),[18],-0.188
same,glycan array binding signal (z-score),[19],-0.212
same,glycan array binding signal (z-score),[20],-0.201
same,glycan array binding signal (z-score),[21],-0.221
same,glycan array binding signal (z-score),[22],-0.238
same,glycan array binding signal (z-score),[23],-0.043
same,glycan array binding signal (z-score),[24],-0.214
same,glycan array binding signal (z-score),[25],-0.156
same,glycan array binding signal (z-score),[26],-0.226
same,glycan array binding signal (z-score),[27],-0.153
same,glycan array binding signal (z-score),[28],1.3
same,glycan array binding signal (z-score),[29],-0.208
same,glycan array binding signal (z-score),[30],-0.2
same,glycan array binding signal (z-score),[31],-0.064
same,glycan array binding signal (z-score),[32],-0.175
same,glycan array binding signal (z-score),[33],-0.217
same,glycan array binding signal (z-score),[34],-0.2
same,glycan array binding signal (z-score),[35],-0.186
same,glycan array binding signal (z-score),[36],-0.175
same,glycan array binding signal (z-score),[37],-0.117
same,glycan array binding signal (z-score),[38],-0.197
same,glycan array binding signal (z-score),[39],-0.004
